# According to the supplement of paper PMC10037445:
# Values joined by “and” are separate entries in the source; they are usually repeats but may differ in a detail not shown here. Identical values can stand only once. Over roughly 2,900 compounds, “IRF Lucia reporter activity, fold change vs agonist alone” has its median near 0.9; the highest 2% begin near 2.8. The list shows a part of the results.
# Experiments:
# RAW-Dual [1] = assay: IRF Lucia reporter activity, fold change vs agonist alone; cytotoxicity flag (confluency mask): not cytotoxic; higher = enhanced IRF activity
# Procedure, shortened: (§1)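 Library stock was pin-tooled at 50 nL into 384-well plates of RAW-Dual macrophages (50,000 cells/well, DMEM), followed 1 h later by a PRR agonist, and the cells were kept at 37 °C, 5% CO2. Supernatant collected after 20 hours was read for IRF by QuantiLuc luminescence and for NF-κB by QuantiBlue absorbance at 620 nm. Reporter activity is fold change over agonist-alone wells, and a well counted as cytotoxic when its IncuCyte confluency was below 70% of agonist controls in both mask sets.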
# RAW-Dual [2] = assay: IRF Lucia reporter activity, fold change vs agonist alone; higher = enhanced IRF activity; settings: library stock concentration (final ~1000-fold dilution): 10 mM, agonist: MPLA (TLR4) […]
# Procedure, shortened: as §1
# RAW-Dual [3] = assay: IRF Lucia reporter activity, fold change vs agonist alone; cytotoxicity flag (confluency mask): cytotoxic (confluency <70% of control); higher = enhanced IRF activity
# Procedure, shortened: as §1
# [4] = agonist: 3'3'-cGAMP (STING) 10 ug/mL
# [5] = cytotoxicity flag (confluency mask): not cytotoxic
# [6] = cytotoxicity flag (confluency mask): cytotoxic (confluency <70% of control)
compound,measurement,setting,value
NC(=O)c1ncn(C2OC(CO)C(O)C2O)c1O (stereo not given) (library stock concentration (final ~1000-fold dilution): 10 mM water),IRF Lucia reporter activity,RAW-Dual [1]; [4],1.2
same,IRF Lucia reporter activity,RAW-Dual [1]; agonist: LPS (TLR4) 0.1 ug/mL,1.32
CCCCCCCN(CC)CCCC(O)c1ccc(NS(C)(=O)=O)cc1.CCCCCCCN(CC)CCCC(O)c1ccc(NS(C)(=O)=O)cc1.O=C(O)/C=C/C(=O)O (stereo not given) (library stock concentration (final ~1000-fold dilution): 10 mM),IRF Lucia reporter activity,RAW-Dual [1]; [4],0.557
same,IRF Lucia reporter activity,RAW-Dual [1]; agonist: LPS (TLR4) 0.1 ug/mL,0.979
CCCCCCCN(CC)CCCC(O)c1ccc(NS(C)(=O)=O)cc1.CCCCCCCN(CC)CCCC(O)c1ccc(NS(C)(=O)=O)cc1.O=C(O)/C=C/C(=O)O (stereo not given),IRF Lucia reporter activity,RAW-Dual [2]; [5],1.05
Br.NC(=O)C(c1ccccc1)(c1ccccc1)C1CCN(CCc2ccc3c(c2)CCO3)C1 (stereo not given),IRF Lucia reporter activity,RAW-Dual [2]; [5],1.17
Br.NC(=O)C(c1ccccc1)(c1ccccc1)C1CCN(CCc2ccc3c(c2)CCO3)C1 (stereo not given) (library stock concentration (final ~1000-fold dilution): 10 mM),IRF Lucia reporter activity,RAW-Dual [1]; [4],0.439
same,IRF Lucia reporter activity,RAW-Dual [1]; agonist: LPS (TLR4) 0.1 ug/mL,1.24
CCC1=CC2CN(C1)Cc1c([nH]c3ccccc13)C(C(=O)OC)(c1cc3c(cc1OC)N(C)C1C(O)(C(=O)OC)C(OC(C)=O)C4(CC)C=CCN5CCC31C54)C2 (stereo not given) (library stock concentration (final ~1000-fold dilution): 10 mM),IRF Lucia reporter activity,RAW-Dual [3]; [4],0.371
same,IRF Lucia reporter activity,RAW-Dual [3]; agonist: LPS (TLR4) 0.1 ug/mL,2.95
CCC1=CC2CN(C1)Cc1c([nH]c3ccccc13)C(C(=O)OC)(c1cc3c(cc1OC)N(C)C1C(O)(C(=O)OC)C(OC(C)=O)C4(CC)C=CCN5CCC31C54)C2 (stereo not given),IRF Lucia reporter activity,RAW-Dual [2]; [6],2.68
O=C(Nc1cccc(C(F)(F)F)c1)Nc1cc(S(=O)(=O)NC2CC2)ccc1-c1ccsc1,IRF Lucia reporter activity,RAW-Dual [2]; [5],0.98
O=C(Nc1cccc(C(F)(F)F)c1)Nc1cc(S(=O)(=O)NC2CC2)ccc1-c1ccsc1 (library stock concentration (final ~1000-fold dilution): 10 mM),IRF Lucia reporter activity,RAW-Dual [1]; [4],0.438
same,IRF Lucia reporter activity,RAW-Dual [1]; agonist: LPS (TLR4) 0.1 ug/mL,0.902
Cl.c1ccc(CC2=NCCN2)cc1 (library stock concentration (final ~1000-fold dilution): 10 mM),IRF Lucia reporter activity,RAW-Dual [1]; [4],1.09
same,IRF Lucia reporter activity,RAW-Dual [1]; agonist: LPS (TLR4) 0.1 ug/mL,1.08
Cl.c1ccc(CC2=NCCN2)cc1,IRF Lucia reporter activity,RAW-Dual [2]; [5],1.12
CC(C(=O)O)c1ccc2c(c1)[nH]c1ccc(Cl)cc12 (stereo not given) (library stock concentration (final ~1000-fold dilution): 10 mM),IRF Lucia reporter activity,RAW-Dual [1]; [4],1.11
same,IRF Lucia reporter activity,RAW-Dual [1]; agonist: LPS (TLR4) 0.1 ug/mL,0.508
CC(C(=O)O)c1ccc2c(c1)[nH]c1ccc(Cl)cc12 (stereo not given),IRF Lucia reporter activity,RAW-Dual [2]; [5],1.05
CC(NC(=O)C(Cc1ccccc1)NC(=O)OCc1ccccc1)C(=O)CF (stereo not given) (library stock concentration (final ~1000-fold dilution): 10 mM),IRF Lucia reporter activity,RAW-Dual [1]; [4],0.98
same,IRF Lucia reporter activity,RAW-Dual [1]; agonist: LPS (TLR4) 0.1 ug/mL,1.27
CC(NC(=O)C(Cc1ccccc1)NC(=O)OCc1ccccc1)C(=O)CF (stereo not given),IRF Lucia reporter activity,RAW-Dual [2]; [5],1.29
CC(C)(C)NC(=O)C1CCC2C3CCC4NC(=O)C=CC4(C)C3CCC12C (stereo not given),IRF Lucia reporter activity,RAW-Dual [2]; [5],1.03
CC(C)(C)NC(=O)C1CCC2C3CCC4NC(=O)C=CC4(C)C3CCC12C (stereo not given) (library stock concentration (final ~1000-fold dilution): 10 mM),IRF Lucia reporter activity,RAW-Dual [1]; [4],1.08
same,IRF Lucia reporter activity,RAW-Dual [1]; agonist: LPS (TLR4) 0.1 ug/mL,0.872
C[C@H]1[C@@H](O)O[C@@H]2OC3(C)CC[C@H]4[C@H](C)CC[C@@H]1[C@@]24OO3 (library stock concentration (final ~1000-fold dilution): 10 mM),IRF Lucia reporter activity,RAW-Dual [1]; [4],0.345
same,IRF Lucia reporter activity,RAW-Dual [1]; agonist: LPS (TLR4) 0.1 ug/mL,0.834
CC(C)c1cc2c(cc1S(=O)(=O)O)[C@@]1(C)CCC[C@@](C)(C(=O)O)[C@@H]1CC2 (library stock concentration (final ~1000-fold dilution): 10 mM),IRF Lucia reporter activity,RAW-Dual [1]; [4],0.936
same,IRF Lucia reporter activity,RAW-Dual [1]; agonist: LPS (TLR4) 0.1 ug/mL,0.763
Cc1ccccc1C(=O)Nc1ccc(C(=O)N2CCCC(O)c3cc(Cl)ccc32)c(C)c1 (stereo not given) (library stock concentration (final ~1000-fold dilution): 10 mM),IRF Lucia reporter activity,RAW-Dual [1]; [4],0.765
same,IRF Lucia reporter activity,RAW-Dual [1]; agonist: LPS (TLR4) 0.1 ug/mL,0.817
Cc1ccccc1C(=O)Nc1ccc(C(=O)N2CCCC(O)c3cc(Cl)ccc32)c(C)c1 (stereo not given),IRF Lucia reporter activity,RAW-Dual [2]; [5],0.901
NC(=O)c1ccc(-c2nc(-c3ccc4c(c3)OCCO4)c(-c3ccccn3)[nH]2)cc1 (library stock concentration (final ~1000-fold dilution): 10 mM),IRF Lucia reporter activity,RAW-Dual [1]; [4],0.616
same,IRF Lucia reporter activity,RAW-Dual [1]; agonist: LPS (TLR4) 0.1 ug/mL,1.29
CCOC(=O)C1=C(COCCN)NC(C)=C(C(=O)OC)C1c1ccccc1Cl (stereo not given) (library stock concentration (final ~1000-fold dilution): 10 mM),IRF Lucia reporter activity,RAW-Dual [3]; [4],0.715 and 0.401
same,IRF Lucia reporter activity,RAW-Dual [3]; agonist: LPS (TLR4) 0.1 ug/mL,2.55 and 2.72
Oc1ccc(/C=C/c2cc(O)cc(O)c2)cc1 (library stock concentration (final ~1000-fold dilution): 10 mM),IRF Lucia reporter activity,RAW-Dual [1]; [4],0.766
same,IRF Lucia reporter activity,RAW-Dual [1]; agonist: LPS (TLR4) 0.1 ug/mL,0.563
same,IRF Lucia reporter activity,RAW-Dual [3]; [4],0.119
same,IRF Lucia reporter activity,RAW-Dual [3]; agonist: LPS (TLR4) 0.1 ug/mL,0.446
Oc1ccc(/C=C/c2cc(O)cc(O)c2)cc1,IRF Lucia reporter activity,RAW-Dual [2]; [5],0.727
Cc1ncc(CCCN(C)C)cc1Nc1ncc2c(n1)-c1ccc(C(F)(F)F)cc1NC(=S)C2,IRF Lucia reporter activity,RAW-Dual [2]; [6],0.727
Cc1ncc(CCCN(C)C)cc1Nc1ncc2c(n1)-c1ccc(C(F)(F)F)cc1NC(=S)C2 (library stock concentration (final ~1000-fold dilution): 10 mM),IRF Lucia reporter activity,RAW-Dual [3]; [4],0.0789
same,IRF Lucia reporter activity,RAW-Dual [3]; agonist: LPS (TLR4) 0.1 ug/mL,0.56
